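Cells were grown in 96-well plates and exposed to each compound for 48 hours at five concentrations; endpoints were interpolated linearly between bracketing concentrations, or set to the highest concentration if not reached. Here, GI50 denotes the concentration required for 50% inhibition of growth.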 The source made the active and inactive calls. Cut-off read from the data, not from the text of the source: active = GI50 up to about 1.1 µM and inactive = higher. Numbered stars: 1 amine (or outer) side, 2 acyl side, 3 side chain; on linkers, the order of the positions; unused ones are H or OH. Peptide text beside a SMILES is read from it. * marks the point of attachment. γGlu = O=C(O)[CH](CCC(=O)[*:2])N[*:1]; Cbz = O=C(OCc1ccccc1)*; NHOH = ON*
Tested on: NCI-H322M
Assay: inhibition of tumour cell growth, NCI panel, 48 h

Structure (SMILES) | GI50
O=C(c1ccc(Br)cc1)n1c2ccc(Br)cc2c2nc3ccccc3nc21 | inactive: > 100 µM
CCOC(=O)CCC(NC(=O)CNC(=O)CNC(=O)C(CCC(=O)OCC)NC(=O)C(CCC(=O)OCC)NC(=O)C(CCC(=O)OCC)NC(=O)OCc1ccccc1)C(=O)NC(CCC(=O)OCC)C(=O)NC(CCC(=O)OCC)C(=O)OCC (stereo not drawn) (Cbz-E(OEt)E(OEt)E(OEt)GGE(OEt)E(OEt)E(OEt)-OEt; configuration not given here) | inactive: > 75 µM
COC(=O)NCCc1n[nH]c2c1C(=O)C=C(N1CCOCC1)C2=O | inactive: > 100 µM
COc1cccc2c1C(=O)c1c(O)c3c(c(O)c1C2=O)C[C@@](O)(C(=O)CO)C[C@@H]3OC1CC(N2CCOCC2)C(O)C(C)O1 (stereo partly drawn) | active: 0.00348 µM
Cc1cc(O)c(-c2cc(O)c(C)cc2O)cc1O | inactive: 17.3 µM
N=C(N)NCCCC(=O)O | inactive: > 100 µM
CCOC(=O)C1=C(Nc2cccc3ccccc23)OC/C1=N\NC(=O)c1ccccc1O | inactive: 21.1 µM
COc1ccc2c(c1)CCC1C3(CCCC21C)OCCO3 (stereo not drawn) | inactive: 19 µM
C[C@H](O)C(=O)SC[C@H](NC(=O)CC[C@@H](N)C(=O)O)C(=O)NCC(=O)O | inactive: > 100 µM
c1ccc2cc3[s+]snc3cc2c1 | inactive: > 100 µM
COc1ccc(/C=C2\C[C@H]3[C@@H]4CC=C5C[C@@H](OC(C)=O)CC[C@]5(C)[C@H]4CC[C@]3(C)C2=O)cc1OC | inactive: 74.8 µM
COc1ccccc1Cc1nc(-c2ccccc2)nn(C2OC(COC(C)=O)C(OC(C)=O)C(OC(C)=O)C2OC(C)=O)c1=S (stereo not drawn) | inactive: 37 µM
O=C(Nc1ccc(C2=NCCN2)cc1)c1cncc(C(=O)Nc2ccc(C3=NCCN3)cc2)c1 | inactive: > 100 µM
CC(C)(C)c1c2c(c(C(C)(C)C)c3c1OCN(Cc1ccccc1)C3)OCN(Cc1ccccc1)C2 | inactive: 19 µM
Cc1cc(N(CCCCl)CCCCl)ccc1/C=N/c1cccc(Cl)c1 | inactive: 19.1 µM
O=c1oc2cc(/N=C/c3ccc4c(c3)OCO4)ccc2c2ccccc12 | inactive: 31.2 µM
CCC12C=CCN3CCC4(c5cc(C6(C(=O)OC)CCCCCc7c6[nH]c6ccccc76)c(OC)cc5N(C)C4C(O)(C(=O)OC)C1OC(C)=O)C32 (stereo not drawn) | inactive: 4.62 µM
NCCCN(CCCCN(CCCN)CCCc1ccccc1)CCCc1ccccc1 | inactive: 5.64 µM
NC(=O)N/N=C1\C[C@H]2CCCC[C@H]2C1 | inactive: > 100 µM
Cc1[nH]c2c(c1Cc1ccccc1)C1=NC=C(O)NN1C=N2 | inactive: > 100 µM
COC(=O)[C@]12CC[C@H]3CN(C(=O)OCc4ccccc4)[C@H]([C@H]31)[C@H](c1ccco1)N2S(=O)(=O)c1ccc(C)cc1 | inactive: 30.9 µM

Structure (SMILES) | GI50
CCOC(=O)C1=C(C(C)=O)CSC(c2ccccc2)=N1 | inactive: > 100 µM
CCCCCCN1C(=O)CC(=O)N(CCCCCC)S1(=O)=O | inactive: 37.7 µM
COc1ccc2cc1Oc1ccc(cc1)C(Sc1ccccc1)CCOC(=O)CC2 (stereo not drawn) | inactive: > 100 µM
CO[P@]1(=O)O[C@@H](c2ccccc2)[C@H](O)[C@@]1(O)c1ccccc1 | inactive: > 100 µM
COc1ccc(CCN2CCOCC2)cc1 | inactive: > 100 µM
OC1=CN=C(C2CC2)Oc2ccccc21 | inactive: > 100 µM
FC(F)(F)c1ccc(C2=N/S(c3ccccc3)=N\C(c3ccc(C(F)(F)F)cc3)=N/S(c3ccccc3)=N\2)cc1 (stereo not drawn) | inactive: > 100 µM
Cc1ccc2c(c1)nc(N)n[n+]2[O-] | inactive: > 100 µM
CCN(CC)CCNc1n[n+]([O-])c2ccccc2[n+]1[O-] | inactive: 19.1 µM
COc1cccc(NC(=O)CC(=O)N2N=C(N(CCC#N)c3ccccc3C)CC2c2ccccc2)c1 (stereo not drawn) | inactive: > 100 µM
S=C(NCCc1ccccn1)N/N=C(\c1ccccc1)c1ccccn1 | active: 0.579 µM
COc1cc2c[n+](C)c3c(c2cc1OC)Cc1cc2c(cc1-3)OCO2 | inactive: > 100 µM
Cc1ccc2c(c1)C(=O)/C(=C1/CCc3ccc(C)cc31)C2 | inactive: > 100 µM
CN1c2ccccc2NC(CC(=O)O)C2CC=CN21 (stereo not drawn) | inactive: > 100 µM
Cc1cn(Cc2cccc(C3=NCCCN3)c2)c(=O)n(Cc2cccc(C3=NCCCN3)c2)c1=O | inactive: > 100 µM
CN(C)CC(C)(C)C(/C=C/c1ccccc1)=N\Nc1ccccc1 | inactive: 28.9 µM
Cc1[nH]c2ccccc2c1CC/C(=N\Nc1ccccc1)c1ccccc1 | inactive: > 100 µM
O=C1/C(=C/c2ccc(Cl)cc2)NC(=S)N1CN1CCCCC1 | inactive: > 100 µM
O=c1ccc2ccc(O)c3c4c(O)ccc5ccc(=O)c(c1c23)c54 | inactive: 2.92 µM
Nc1nc(O)c2c(n1)NCN(c1ccc(S(N)(=O)=O)cc1)C2 | inactive: > 100 µM
CC1=C2C(=O)C(C)(C)C=C2C(=O)[C@](C)(O)C12CC2 [DEHYDROILLUDIN M] | active: > 1 µM

Structure (SMILES) | GI50
CCOC(=O)[C@@H]1[C@@H]2NC(=O)N[C@@]1(C)Oc1ccccc12 | inactive: > 100 µM
O=[N+]([O-])c1ccc(-c2cc(O)c3nc4ccccc4n3c2)cc1 | inactive: > 100 µM
COc1cc2c(cc1OCCCC(=O)Nc1cc(C(=O)Nc3cc(C(=O)Nc4cc(C(=O)NCCCN(C)C)n(C)n4)n(C)c3)n(C)c1)N=CC1CCCN1C2=O (stereo not drawn) | inactive: > 100 µM
C[C@@H](c1ccccc1)N(CC#N)[C@H]1CCC[C@]1(O)/C=C/c1ccc2c(c1)OCO2 | inactive: > 25 µM
NC(Cc1c[nH]c2cc([N+](=O)[O-])ccc12)C(=O)O (stereo not drawn) | inactive: > 100 µM
CN(C=O)/C=C/c1cc(O)ccc1O | inactive: > 100 µM
CCCC(=O)NC(Nc1ccc(F)cc1)(C(F)(F)F)C(F)(F)F | inactive: > 100 µM
CO[C@@]12C[C@@H](CNC(=O)c3cc(Br)c[nH]3)O[C@@H]1NC(=O)N2 | inactive: > 100 µM
Cc1nc(N)c(N2CCN(Cc3ccccc3)CC2)c(O)n1 | inactive: > 100 µM
CCOC(=O)CC[C@H](NC(=O)c1nc[nH]c1/N=N/N(C)C)C(=O)OCC | inactive: > 100 µM
O=C1Cc2c(-c3ccccc3)cc(-c3ccc(Cl)cc3)nc2-c2ccccc2N1 | inactive: 4.01 µM
COc1cccc2cc(C(N)=O)c(=N)oc12 | inactive: 39.8 µM
C=C(Cl)C(Cl)(CBr)CCC(Cl)C(C)(C)Cl (stereo not drawn) | inactive: 2.5 µM
CC(=O)OC1CC[C@@]2(C)C(=CC[C@@H]3[C@@H]2CC[C@]2(C)Nc4nn(S(C)(=O)=O)cc4C[C@@H]32)C1 (stereo partly drawn) | inactive: 75 µM
COC1C2c3cc4c(cc3CC(C#N)(c3ccccc32)N1C(=O)c1ccccc1)OCO4 (stereo not drawn) | inactive: 54.7 µM
NC(CCC(=O)NC(CCC(=O)NO)C(=O)NCC(=O)O)C(=O)O (stereo not drawn) (γGlu-Glu(NHOH)-Gly-OH; configuration not given here) | inactive: > 100 µM
CCCNc1[nH]c(C(=O)c2ccccc2)c(N)c1C(=S)Nc1ccccc1 | inactive: > 100 µM
Cc1ccccc1NC(=O)CSc1nnc(Cc2ccccc2)o1 | inactive: > 100 µM
C=C1CC2CC(O)CC(C1)C2 (stereo not drawn) | inactive: > 100 µM
O=C1Nc2cccc3ncn(c23)C2=C1CCCC2 | inactive: > 100 µM
CCOC1NC(=O)c2ccccc21 (stereo not drawn) | inactive: > 100 µM
